Measurements taken from PubChem BioAssay AID360 (National Center for Advancing Translational Sciences (NCATS), 2006).
In all, about 48,000 compounds went through this assay and about 550 (1.1%) were called active. Another 4% or so got no clear call; they are omitted. Cut-off read from the data, not from the text of the source: active = potency below about 15 µM; inconclusive = mostly about 16 µM to 33 µM; inactive = weaker than that. Some of the results follow.

Each compound was assayed against Lysosomal acid glucosylceramidase (Homo sapiens) (UniProt P04062) (assay: Glucocerebrosidase). Settings: purified enzyme, resorufin glucoside fluorescence (screen aimed at inhibitors), 20 min; series mostly up to 77 µM.
Sequence of UniProt P04062 (P04062 whole entry, looked up): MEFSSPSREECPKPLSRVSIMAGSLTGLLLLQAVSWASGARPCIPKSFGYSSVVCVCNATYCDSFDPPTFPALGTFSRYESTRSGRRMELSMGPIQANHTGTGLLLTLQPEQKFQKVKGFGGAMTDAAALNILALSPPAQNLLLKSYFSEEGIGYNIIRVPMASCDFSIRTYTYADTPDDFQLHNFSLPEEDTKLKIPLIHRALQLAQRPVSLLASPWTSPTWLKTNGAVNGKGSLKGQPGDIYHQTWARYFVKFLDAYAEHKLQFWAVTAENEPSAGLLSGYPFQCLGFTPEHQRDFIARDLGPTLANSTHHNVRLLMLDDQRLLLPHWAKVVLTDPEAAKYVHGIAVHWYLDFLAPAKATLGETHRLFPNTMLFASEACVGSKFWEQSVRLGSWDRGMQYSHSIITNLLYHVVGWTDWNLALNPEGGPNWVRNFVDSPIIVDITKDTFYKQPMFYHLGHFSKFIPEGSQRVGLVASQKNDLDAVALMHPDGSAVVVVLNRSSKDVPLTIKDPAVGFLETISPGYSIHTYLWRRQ
How it was run: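 Wild-type enzyme at 0.2 nM final in 50mM citric acid/KH2PO4, 10mM sodium taurocholate, 0.01% tween-20, pH 5.9, with resorufin beta-D-glucopyranoside at 30 uM final. Compounds titrated, 20 min at RT, red fluorescence read; AC50 from titration.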
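Note: the screen sought inhibitors.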
Potency is the fitted concentration of half-maximal effect.

Potency, inactive:
Cc1cc(C)n2nc[n+](C)c2n1 > 76.9 µM, COC(=O)c1ccccc1NC(=O)CN(C1CCCCC1)S(C)(=O)=O > 76.9 µM, CCOc1ccc(C(N)=O)cc1OC > 76.9 µM, O=C(NCC1CCC(C(=O)O)CC1)c1cccnc1 (configuration not stated) > 76.9 µM, CCCCN(C(=O)NC(=O)Nc1ccccc1C)S(C)(=O)=O > 76.9 µM, Cc1n[nH]c(C)c1S(=O)(=O)Nc1ccc2c(c1)OCCO2 > 76.9 µM, O=S(=O)(NCc1ccncc1)c1ccc(S(=O)(=O)NCC2CCCO2)cc1 (configuration not stated) > 76.9 µM, O=C1CCC(C(=O)N(Cc2ccco2)C2(C(=O)NC3CCCC3)CCCCC2)N1 (configuration not stated) > 76.9 µM, CC12CC(NC(=O)N1c1ccc(C(=O)N3CCN(c4ccccn4)CC3)cc1)c1ccccc1O2 (configuration not stated) > 76.9 µM, O=S(=O)(Nc1cccc(C(F)(F)F)c1)c1cnc[nH]1 > 76.9 µM, COc1ccc(-c2nc3scc(-c4ccccc4)n3n2)cc1 > 76.9 µM, COC(=O)C1=C(C)N(c2cccc(Cl)c2)C(=O)C1 > 76.9 µM, CC(OC(=O)c1cccs1)C(=O)NCc1ccccc1 (configuration not stated) > 76.9 µM, COc1ccc(NC(=O)c2c(C)oc3c2CCCC3)cc1 > 76.9 µM, COCCn1c(SCC(=O)Nc2cc(C)cc(C)c2)nnc1C(C)C > 76.9 µM, Cc1ccc(N)cc1-n1c(C)ccc1C > 76.9 µM, CCOC(=O)c1cnc(SCC(=O)NCc2cccs2)nc1N > 76.9 µM, CSc1ccc(CN(C)CC(=O)NC(=O)NC(C)(C)C)cc1 > 76.9 µM, Cn1ccnc1Sc1nc2c(c(=O)n(C)c(=O)n2C)n1C > 76.9 µM, CC1CCN(CCCNC(=O)c2cc3sccc3n2C)CC1 > 76.9 µM, CCN1CCCC1CNC(=O)c1ccc2c(=O)n(CCOC)c(=O)[nH]c2c1 (configuration not stated) > 76.9 µM, O=C(COC(=O)c1ccccc1NC(=O)c1ccco1)NCCC1=CCCCC1 > 76.9 µM, O=C(NCc1ccc2c(c1)OCO2)C1CC(=O)N(c2ccc(O)cc2)C1 (configuration not stated) > 76.9 µM, CCOC(=O)c1c(C)c(C(=O)N2CCc3ccccc3C2)c(C)n1CC > 76.9 µM, Cc1ccc(N(C(=O)c2ccc(S(=O)(=O)N3CCOCC3)cc2)C2C=CS(=O)(=O)C2)cc1 (configuration not stated) > 76.9 µM, Cn1c(=O)cc(OCCCC(=O)Nc2ccccn2)c2ccccc21 > 76.9 µM, NC(=O)c1cnn(Cc2ccc(Cl)cc2)c1N > 76.9 µM, O=C(NCCO)c1cccc(S(=O)(=O)N2CCCCC2)c1 > 76.9 µM, COc1ccc(C2C3=C(CCCC3=O)Nc3nc(C(F)(F)F)nn32)cc1OC (configuration not stated) > 76.9 µM, C=CCn1c(=O)[nH]c2cc(C(=O)N3CCN(c4cccc(Cl)c4)CC3)ccc2c1=O, COc1ccccc1N1CCN(C(=O)CSc2nc3ccccc3c(=O)n2CC2CCCO2)CC1 (configuration not stated) > 76.9 µM, O=C(CSc1cc(Cl)ccc1Cl)NCC1CCCO1 (configuration not stated) > 76.9 µM, O=C(Nc1cccc2c1C(=O)NC2=O)c1ccc(S(=O)(=O)N2CCCC2)cc1 > 76.9 µM, COc1ccccc1C1C=C(c2ccc(C)cc2)Nc2nnnn21 (configuration not stated) > 76.9 µM, Cc1ccc(S(=O)(=O)N2CCCSCC2)cc1 > 76.9 µM, Cn1c(=O)n(CCN2CCOCC2)c(=O)c2c1nc1n2CCN1c1ccc(Oc2ccccc2)cc1 > 76.9 µM, CCOC(=O)c1cc(-c2ccccc2)sc1N > 76.9 µM, c1coc(CNc2c3c(nc4ncnn24)CCCC3)c1, O=c1c2c(nc3n1CCCCC3)sc1c(O)cccc12 > 76.9 µM, Cc1cc(-c2ccco2)n(CC(=O)O)n1 > 76.9 µM, CCc1ccc(C(=O)CC2(O)C(=O)N(CN3CCOCC3)c3ccccc32)cc1 (configuration not stated) > 76.9 µM, CCSc1nnc(NC(=O)c2nc(-c3ccccc3)n(-c3ccccc3)n2)s1 > 76.9 µM, COCCn1c(-c2ccccc2)nc(=S)c2c1CC(C)(C)OC2 > 76.9 µM, COCCN(Cc1cc2cccc(C)c2[nH]c1=O)C(=O)c1ccccc1 > 76.9 µM, CCC(=O)Nc1sc2c(c1C(N)=O)CCC2 > 76.9 µM, Cc1c(C(=O)N2CCOCC2)[nH]c2c1C(=O)CC(c1ccc(Cl)cc1)C2 (configuration not stated) > 76.9 µM, CCn1c(CSc2nccn2C)nc2cc(C(=O)O)ccc21 > 76.9 µM, COC(=O)c1cc2ccsc2n1CC(=O)N1CCCc2ccccc21, CCCn1c(=O)c2ccccc2n2c(SCCOc3ccccc3)nnc12 > 76.9 µM, Nc1nnc(COc2cccc(C(F)(F)F)c2)s1 > 76.9 µM, CCOC(=O)Cc1csc(NC(=O)c2ccc(S(=O)(=O)N3CCCCC3)cc2)n1 > 76.9 µM, O=C(CSc1nnc(-c2ccccc2)o1)n1c2c(c3ccccc31)CCCC2 > 76.9 µM, O=C(NC1CCCCC1)C(c1ccco1)N(C(=O)c1csnn1)C1CCCC1 (configuration not stated) > 76.9 µM, O=c1[nH]c2cc3c(cc2cc1CN(CC1CCCO1)S(=O)(=O)c1ccccc1)OCCO3 (configuration not stated) > 76.9 µM, O=C(Cn1cnc2c(oc3ccccc32)c1=O)NCCc1ccccc1 > 76.9 µM, N=c1c(C(=O)NCc2ccc3c(c2)OCO3)cc2c(=O)n3ccccc3nc2n1Cc1cccnc1 > 76.9 µM, CCC(C)(C)NC(=O)C(c1ccco1)N(C(=O)c1csnn1)c1cccc(F)c1 (configuration not stated) > 76.9 µM, Cc1cccc(NC(=O)C2c3ccccc3C(=O)N3CCc4ccccc4C23)n1 (configuration not stated) > 76.9 µM, O=C(Nc1ccccc1C(=O)NCC1CCCO1)c1ccco1 (configuration not stated) > 76.9 µM, Cc1cc(C)c2nc(NC3=NCN(CCN4CCOCC4)CN3)nc(C)c2c1 > 76.9 µM, COc1cccc(C(O)c2cnc(C(C)C)n2C)c1OC (configuration not stated) > 76.9 µM, CCOc1ccc(OCC)c(NC(=O)C2CCN(c3nn4c(=O)cc(C)nc4s3)CC2)c1, CCOC(=O)C1CCCN(CC(=O)Nc2c(C(=O)OC)[nH]c3ccccc23)C1 (configuration not stated) > 76.9 µM, Cc1ccc(Cl)cc1NC(=O)Cn1cccc1 > 76.9 µM, O=C(NCc1ccccn1)c1ccc(/C=N/O)nc1 > 76.9 µM, CC(=O)N1CCc2cc(S(=O)(=O)NCCC(=O)NC3CCN(Cc4ccccc4)CC3)ccc21 > 76.9 µM, Cc1ccc(S(=O)(=O)N(C)CC(=O)N2CCc3ccccc32)cc1 > 76.9 µM, Cc1cc(C(=O)NCCCn2ccnc2)cs1 > 76.9 µM, CCOC(=O)c1cccnc1SC(CC)C(=O)N1CCOCC1 (configuration not stated) > 76.9 µM, COc1ccc(C(C)=O)c(Oc2nc(CN3CCOCC3)nc3scc(-c4cccs4)c23)c1 > 76.9 µM, CN1CCN(C(=O)c2sc(=S)n(-c3ccccc3)c2N)CC1 > 76.9 µM, O=C(Nc1ccccc1)N1CC=C(c2ccc(F)cc2)CC1 > 76.9 µM, O=C(CCC1CCCCC1)N1CCN(Cc2ccc3c(c2)OCO3)CC1 > 76.9 µM, COC(=O)[C@H](CCSC)NC(=O)Nc1cc(C)ccc1C > 76.9 µM, O=C(Nc1sc2c(c1C(=O)NC1CCCCC1)CCC2)c1ccco1 > 76.9 µM, O=C(O)CCc1ccc(-c2cccs2)n1CC1CCCO1 (configuration not stated) > 76.9 µM, Cc1ccc(Cl)c(OCC(O)CN(CCO)CCO)c1 (configuration not stated) > 76.9 µM, O=S(=O)(c1ccc(Br)c2nsnc12)N1CCOCC1 > 76.9 µM, CN(C)c1ccc(NC(=O)Cn2c(=O)n(Cc3ccccc3)c(=O)c3ccccc32)cc1 > 76.9 µM, CC(=O)OCCN1C(=O)c2cccnc2C1=O > 76.9 µM, Cc1ccc2c(c1)c1c3n2CCN(C(=O)CN2CCN(C)CC2)C3CCC1 (configuration not stated) > 76.9 µM, O=c1cc(-c2c(F)c(F)c(F)c(F)c2F)oc2c(F)c(F)c(F)c(F)c12 > 76.9 µM, Cc1c(C2Nc3ccccc3NC3=C2C(=O)CC(C)(C)C3)cnn1C (configuration not stated) > 76.9 µM, CCOc1ccc(N2C(=O)NC(Cc3c[nH]c4ccccc34)C2=O)cc1 (configuration not stated) > 76.9 µM, CCN(CC(=O)Nc1ccccc1OC)C(=O)C1CC2C=CC1C2 (configuration not stated) > 76.9 µM, COc1ccc(C2C(C(=O)O)CC(=O)N2C2CCCCC2)cc1 (configuration not stated) > 76.9 µM, CCN(CCCNC(=O)CNC(=O)Cn1cnc2ccccc2c1=O)c1cccc(C)c1 > 76.9 µM, Cc1nn(Cc2ccc(F)cc2)c(C)c1NC(=O)c1cc(-c2ccco2)on1 > 76.9 µM, O=C(C1COc2ccccc2O1)N1CCc2ccccc21 (configuration not stated) > 76.9 µM, C=CCn1c(SCc2ccc(C#N)cc2)nnc1-c1cccc(OC)c1 > 76.9 µM, Nc1sccc1C(=O)c1ccccc1 > 76.9 µM, CC1(C)Cc2nc3oc4c(=S)nc[nH]c4c3cc2CO1 > 76.9 µM
